First the molecules themselves.
B1: TPR 5TU (parent)
chain: GGAUCUUCUCGAUCUAACAAAAAAGACAAAUCUGCCACAAAGCUUGAGAGCAUCUUCGGAUGCAGAGGCGGCAGCCUUCGGUGGCGCGAUAGCGCCAACGUUCUCAACUAUGACACGCAAAACGCGUGCUCCGUUGAAUGGAGUUUAUCAUG

Variants at the floor of the assay are shown more often than the library holds them.

The variants in this data set derive from B1. Kind of data set: polymerase ribozyme fitness, log enrichment relative to wild type (log ratio); higher = more active; in vitro selection for triplet polymerase activity. In a few lines: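 Streptavidin-bead capture of gel-excised extended constructs, followed by RT-PCR, closed a single triplicate in vitro selection round. That round began by annealing PCR-built, transcribed mutant libraries of each subunit of a heterodimeric triplet polymerase ribozyme with a biotinylated primer, the partner subunit and triplets, then incubating them frozen at −7 °C. After Illumina sequencing of inputs and outputs, genotypes needed ≥10 input reads and ≥1 read per output. Fitness is the base-2 logarithm of genotype enrichment over wild-type enrichment, using inverse-variance-weighted replicate averages.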
For A39C G48C A73U C93A, the “polymerase ribozyme fitness (log ratio)” value is ≤ -4.2.

As to C38U C57G C75U G86A U148A, the “polymerase ribozyme fitness (log ratio)” value is ≤ -4.2.

Turning to A39G G84U U127A, the “polymerase ribozyme fitness (log ratio)” value is ≤ -4.2.

For A39U A41C C85A A89C U90A G112U, the “polymerase ribozyme fitness (log ratio)” value is ≤ -4.2.

As to A39U U55A C57A U90G G92A, the “polymerase ribozyme fitness (log ratio)” value is ≤ -4.2.

In the case of A40C C75U U78A G80U A106G G124U U139G G140U, the “polymerase ribozyme fitness (log ratio)” value is ≤ -4.2.

As to A40C G42C A52G C54U C96G U109G, the “polymerase ribozyme fitness (log ratio)” value was ≤ -4.2.

As for A39G A60G G80A C95A C114A, the “polymerase ribozyme fitness (log ratio)” value is ≤ -4.2.

Take A39C C54U G67U A98G U102G U144G: the “polymerase ribozyme fitness (log ratio)” value was ≤ -4.2.

A39U G42C U77C C85A: the “polymerase ribozyme fitness (log ratio)” value is ≤ -4.2.

With A39U G48A A60U U78A C132A A138C, the “polymerase ribozyme fitness (log ratio)” value is ≤ -4.2.

Take A40C C72U C85G G136U C149A: the “polymerase ribozyme fitness (log ratio)” value was ≤ -4.2.

Regarding A39C A49C G59A G88U U139G, the “polymerase ribozyme fitness (log ratio)” value is ≤ -4.2.

Consider A39U G42C C76U U102A A120U A122G G140A, for which the “polymerase ribozyme fitness (log ratio)” value was ≤ -4.2.

As for A39U U77A G81C C87U C95U A98C G126U G136C, the “polymerase ribozyme fitness (log ratio)” value was ≤ -4.2.

Regarding A40C G42C U78G A150G, the “polymerase ribozyme fitness (log ratio)” value is ≤ -4.2.

As to C38U C95A C103U G143A, the “polymerase ribozyme fitness (log ratio)” value is -3.18.

In the case of A39G A47U G83U C87A U90G, the “polymerase ribozyme fitness (log ratio)” value was ≤ -4.2.

Regarding A39C C75G C85U G124A, the “polymerase ribozyme fitness (log ratio)” value was ≤ -4.2.

In the case of A39G C54U G68C U82C C93A G117C G133A U151A, the “polymerase ribozyme fitness (log ratio)” value is ≤ -4.2.

Regarding A39G A60U U78C G88A A106C U127G A147C, the “polymerase ribozyme fitness (log ratio)” value is ≤ -4.2.

As to A39U A66U G68U G94A, the “polymerase ribozyme fitness (log ratio)” value was ≤ -4.2.

Regarding A39C C54U G71A G83U U109C A119U, the “polymerase ribozyme fitness (log ratio)” value is ≤ -4.2.

Turning to A39C C87A C114U, the “polymerase ribozyme fitness (log ratio)” value is ≤ -4.2.

C38U C105G G128C: the “polymerase ribozyme fitness (log ratio)” value is ≤ -4.2.

On to A39C A47C C63G G84U A89U G141A, for which the “polymerase ribozyme fitness (log ratio)” value was ≤ -4.2.

For the variant A40C C51A C57U U77C C93U C131U G143U, the “polymerase ribozyme fitness (log ratio)” value was ≤ -4.2.

For the variant A39U C79U C93A, the “polymerase ribozyme fitness (log ratio)” value was ≤ -4.2.

A40C C93A G143A: the “polymerase ribozyme fitness (log ratio)” value was -3.22.

Turning to A39G C103G U144A, the “polymerase ribozyme fitness (log ratio)” value is ≤ -4.2.

In the case of C38U G94U U151A, the “polymerase ribozyme fitness (log ratio)” value is ≤ -4.2.

As for A40C A52U U56A G58C G84A C96G C116G A147U, the “polymerase ribozyme fitness (log ratio)” value was ≤ -4.2.

In the case of A39C U148C, the “polymerase ribozyme fitness (log ratio)” value is ≤ -4.2.

In the case of A39C U55A G58A G68A A91C U134C, the “polymerase ribozyme fitness (log ratio)” value is ≤ -4.2.

Regarding A39G C85U U101C, the “polymerase ribozyme fitness (log ratio)” value was -2.58.

For A39U A49G G50U A52G A73U C76U G84U C116U A122U U127G, the “polymerase ribozyme fitness (log ratio)” value is ≤ -4.2.

Regarding A39C U53G U55A G143A U148G, the “polymerase ribozyme fitness (log ratio)” value is ≤ -4.2.

For the variant C38U G70A, the “polymerase ribozyme fitness (log ratio)” value was -2.9.

On to C38U C87A A113U G124A, for which the “polymerase ribozyme fitness (log ratio)” value was ≤ -4.2.

As for C38U U56A U78G G133A G136A, the “polymerase ribozyme fitness (log ratio)” value was ≤ -4.2.

In the case of A40C C69G C75U A98U U135G U151G, the “polymerase ribozyme fitness (log ratio)” value was ≤ -4.2.

Regarding A39G G42A A49C C99A A110U G133U, the “polymerase ribozyme fitness (log ratio)” value is ≤ -4.2.

Take A40C A137G: the “polymerase ribozyme fitness (log ratio)” value was -1.42.

For A39C A40G G50C C75A C85G, the “polymerase ribozyme fitness (log ratio)” value is ≤ -4.2.

Regarding C38G C51U, the “polymerase ribozyme fitness (log ratio)” value was -0.547.

Regarding A39G A41U G84A C85U A98U, the “polymerase ribozyme fitness (log ratio)” value was ≤ -4.2.

As to A39G A41C C75U G86C U104G C108A C123U, the “polymerase ribozyme fitness (log ratio)” value is ≤ -4.2.

Take A39C C43U G74A C103G U127A: the “polymerase ribozyme fitness (log ratio)” value was ≤ -4.2.

With A39U G83C A106C C116A C131A, the “polymerase ribozyme fitness (log ratio)” value is ≤ -4.2.

Consider A39U A119G U151G, for which the “polymerase ribozyme fitness (log ratio)” value was ≤ -4.2.

Regarding A39C C54A A60C G80U G84A C114A C116G, the “polymerase ribozyme fitness (log ratio)” value was ≤ -4.2.

Turning to C38U A47C C63U A66C C87G U146C, the “polymerase ribozyme fitness (log ratio)” value was ≤ -4.2.

As to A39C C43A A49C U61A U90G A98U C105U A113U C118U, the “polymerase ribozyme fitness (log ratio)” value was ≤ -4.2.

With A39U G126C, the “polymerase ribozyme fitness (log ratio)” value was -0.865.

Consider C38U G83C C132A, for which the “polymerase ribozyme fitness (log ratio)” value is ≤ -4.2.

As for A39G A49C U56A G94C C103A A142C, the “polymerase ribozyme fitness (log ratio)” value was ≤ -4.2.

For A39G U56A U90A, the “polymerase ribozyme fitness (log ratio)” value is ≤ -4.2.

A39C G58A A60C A91U G92A C116U A122G: the “polymerase ribozyme fitness (log ratio)” value was ≤ -4.2.

Turning to A39G U55A C75G C87U A89U C99U C116U A142U, the “polymerase ribozyme fitness (log ratio)” value was ≤ -4.2.

On to A39G C87U, for which the “polymerase ribozyme fitness (log ratio)” value was -2.33.

For A39U A52G C79G G84C C108U, the “polymerase ribozyme fitness (log ratio)” value is ≤ -4.2.

Consider A40C C96U G141A U148C, for which the “polymerase ribozyme fitness (log ratio)” value was ≤ -4.2.

C38G C57G C63A A66C C125G G152U: the “polymerase ribozyme fitness (log ratio)” value is ≤ -4.2.

Consider A39U C54G G86A G88C G140A G141C, for which the “polymerase ribozyme fitness (log ratio)” value was ≤ -4.2.

With A39G U77C C99U, the “polymerase ribozyme fitness (log ratio)” value is ≤ -4.2.

Regarding C38U U55A G70C U78C G84U U102G U134A, the “polymerase ribozyme fitness (log ratio)” value was ≤ -4.2.

In the case of C38U A120U A142U, the “polymerase ribozyme fitness (log ratio)” value is -0.329.

As for A39C G84C G143A, the “polymerase ribozyme fitness (log ratio)” value is ≤ -4.2.

A39G U55G U61G A91U C96G U134G G136C: the “polymerase ribozyme fitness (log ratio)” value was ≤ -4.2.

A39U A49C A60U G71A C76G G81A C93G C103G C108U: the “polymerase ribozyme fitness (log ratio)” value is ≤ -4.2.

Regarding C38G U53A U56A A89U G92A A142C C149G, the “polymerase ribozyme fitness (log ratio)” value was ≤ -4.2.

On to A39G A64G G80A A121C, for which the “polymerase ribozyme fitness (log ratio)” value was ≤ -4.2.

Turning to A39C A47U C95U U146C C149G, the “polymerase ribozyme fitness (log ratio)” value is ≤ -4.2.

Regarding A39U A49G C76G A91U C132U, the “polymerase ribozyme fitness (log ratio)” value was ≤ -4.2.

Consider A40C A52G G80U C114G G128U G133U, for which the “polymerase ribozyme fitness (log ratio)” value is ≤ -4.2.

As for A39C C54A U90G A121G A122U C123A G141A, the “polymerase ribozyme fitness (log ratio)” value was ≤ -4.2.

On to A40C A41U G70A U151A, for which the “polymerase ribozyme fitness (log ratio)” value was ≤ -4.2.

With A39C G42A C87G G126A U130A U146G, the “polymerase ribozyme fitness (log ratio)” value was ≤ -4.2.

For the variant C38U G84A U139A, the “polymerase ribozyme fitness (log ratio)” value is ≤ -4.2.

Regarding C38U U45G U55A A60U G71A, the “polymerase ribozyme fitness (log ratio)” value was ≤ -4.2.

Regarding C38U A66G G92U C108A G136U, the “polymerase ribozyme fitness (log ratio)” value is ≤ -4.2.

With A40C C54A G83A G100C, the “polymerase ribozyme fitness (log ratio)” value is ≤ -4.2.

For C38U A66U A73C C96A, the “polymerase ribozyme fitness (log ratio)” value was ≤ -4.2.

With A39U G58U A60C C76U C87G, the “polymerase ribozyme fitness (log ratio)” value is ≤ -4.2.
